The supplement of paper PMC3334620
Whole data set: some 33,000 sequences, median “E-score (-0.5 to 0.5)” near -0.035, cut for the highest 2% near 0.35. This is one part of the list.

Molecular target: T1, Pdr3 (UniProt P33200)
T1 sequence: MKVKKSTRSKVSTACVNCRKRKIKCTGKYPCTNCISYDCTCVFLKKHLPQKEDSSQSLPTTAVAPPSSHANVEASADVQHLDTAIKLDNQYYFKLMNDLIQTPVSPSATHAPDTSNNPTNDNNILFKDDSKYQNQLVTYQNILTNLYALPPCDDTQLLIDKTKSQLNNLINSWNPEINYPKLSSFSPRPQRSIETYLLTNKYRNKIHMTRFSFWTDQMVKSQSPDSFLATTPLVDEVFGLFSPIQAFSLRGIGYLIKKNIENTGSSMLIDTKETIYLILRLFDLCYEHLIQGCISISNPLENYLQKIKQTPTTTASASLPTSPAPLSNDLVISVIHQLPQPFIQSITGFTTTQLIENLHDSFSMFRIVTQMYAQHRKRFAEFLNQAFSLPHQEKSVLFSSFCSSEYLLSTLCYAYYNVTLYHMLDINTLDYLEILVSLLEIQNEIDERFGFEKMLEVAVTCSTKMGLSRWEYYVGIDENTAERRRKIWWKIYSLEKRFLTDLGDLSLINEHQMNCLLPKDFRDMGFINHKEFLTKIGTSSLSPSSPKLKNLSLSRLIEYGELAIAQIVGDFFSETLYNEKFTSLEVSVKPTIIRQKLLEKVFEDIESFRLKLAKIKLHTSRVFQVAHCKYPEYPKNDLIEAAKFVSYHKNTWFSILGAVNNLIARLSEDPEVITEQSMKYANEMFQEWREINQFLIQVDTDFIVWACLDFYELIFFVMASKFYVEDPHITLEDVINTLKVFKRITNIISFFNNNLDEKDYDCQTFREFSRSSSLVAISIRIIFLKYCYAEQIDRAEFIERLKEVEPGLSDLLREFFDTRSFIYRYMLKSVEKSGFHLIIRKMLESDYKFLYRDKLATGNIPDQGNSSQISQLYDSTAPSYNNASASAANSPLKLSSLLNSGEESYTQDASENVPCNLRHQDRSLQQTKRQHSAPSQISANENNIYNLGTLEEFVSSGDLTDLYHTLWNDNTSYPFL
Test: PBM E-score (8-mer binding enrichment) (E-score (-0.5 to 0.5)); higher = stronger / more preferred TF binding; most listed sequences are background and not binding sites
Conditions: protein concentration: 200 nM; construct: GST-full length
Description: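 Universal 'all 10-mer' protein binding microarrays (Agilent AMADID 015681) probed with GST-tagged S. cerevisiae TFs (full-length or DBD) made by in vitro transcription/translation (PURExpress), about 100-200 nM. Bound TF was detected with fluorescent anti-GST. Each ungapped 8-mer (which stands for itself and its reverse complement) is scored by the PBM enrichment score (E-score), a modified Wilcoxon-Mann-Whitney statistic from -0.5 to +0.5, computed with the Universal PBM Analysis Suite. Scale: above 0.35 generally sequence-specific binding.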

Row | Sequence | PBM E-score
1 | CCCGCCAA | 0.192
2 | CGGGCGGC | 0.291
3 | CTAGATTC | -0.0783
4 | CTAACTCA | -0.239
5 | ATCGAACA | -0.0304
6 | CGGATGGC | 0.256
7 | ACATTTTA | -0.0788
8 | GCGTTCGA | -0.118
9 | GCGCGGAC | 0.305
10 | GTAATTTA | -0.0395
11 | CCCTGGTC | -0.0525
12 | CCCAATGC | -0.194
13 | ACCTGAAT | 0.0497
14 | ACCAAAGG | -0.186
15 | CGTTTTAA | -0.0191
16 | AGACGGAA | 0.422
17 | ACGAATTA | -0.148
18 | TCCCTAAA | -0.142
19 | GAGTATAA | 0.0207
20 | AAAGTGAA | 0.057
21 | ATTCGGGC | 0.0757
22 | CTACTCAC | -0.0222
23 | ACTCCACA | -0.0854
24 | AACGGTTG | -0.108
25 | AGGGGTCG | -0.27

Row | Sequence | PBM E-score
26 | CTGCTGAA | -0.15
27 | CTGTCGTC | -0.149
28 | GACCAGCC | 0.114
29 | AGCAGCAC | -0.129
30 | TACAACTA | -0.025
31 | ATGAAACA | -0.111
32 | CCGTGCAA | 0.115
33 | AGAGTAAG | -0.0626
34 | GGATGACC | 3e-05
35 | AACACTAT | 0.148
36 | AGTGTCAC | 0.0357
37 | GCTTTATA | -0.0639
38 | GCAATAAC | 0.0544
39 | GACCGACA | -0.0173
40 | ATAGTATA | 0.131
41 | AATAGGAC | -0.0505
42 | AATCGTAC | 0.0749
43 | CAGTCAGC | -0.113
44 | CTTCAAAA | -0.0259
45 | AAAATGGA | 0.152
46 | ACTCAATA | -0.0454
47 | GAATCGAA | 0.0265
48 | CATGTACG | 0.00428
49 | ACGTGACA | -0.203
50 | ACTGGACA | 0.0362

Row | Sequence | PBM E-score
51 | ACTACTCT | -0.0836
52 | GACCGAGC | 0.0956
53 | ACACCGAA | 0.108
54 | AGCGTCTA | -0.18
55 | GTCCGTCA | 0.213
56 | AGAAACCT | 0.0541
57 | CAGCGTTC | -0.0264
58 | AATGTATA | 0.0929
59 | GCATGGAA | 0.0983
60 | CCGGTAGC | 0.197
61 | CTCAGTTA | -0.0937
62 | CGAAGAAC | 0.119
63 | AATTAGTA | 0.0198
64 | AGTCTCTA | -0.297
65 | GTGCGAGA | -0.157
66 | CGGTCGAG | -0.014
67 | CTCTCTCC | 0.0299
68 | TGATGAAA | -0.1
69 | GCAGGAAA | -0.081
70 | ACACCTCG | 0.0245
71 | GAGGACGA | 0.022
72 | ATTGCACG | 0.0604
73 | CTCCCTGC | -0.246
74 | ATAAGCAA | -0.128
75 | TGAGTACA | -0.108

Row | Sequence | PBM E-score
76 | AAGGCACT | -0.138
77 | TGAGACAA | -0.0208
78 | ATGCGGTG | -0.146
79 | GAACCATA | 0.148
80 | CCTTGAAA | -0.159
81 | CTCATTAA | -0.0153
82 | TCATTGGA | -0.11
83 | CCCTATGA | -0.112
84 | CCATTGCG | 0.185
85 | GGGGCCAC | 0.00432
86 | GCCGGCAC | 0.392
87 | GGATGCAC | 0.101
88 | AGTTGGTC | -0.0107
89 | ATTCGAAA | 0.055
90 | CAAGGAGA | -0.142
91 | AAAACGAT | -0.222
92 | CCGAACCG | 0.265
93 | AGCGACAT | -0.0907
94 | ATTATACA | -0.093
95 | ACGCTCGG | 0.226
96 | AACGCCCT | -0.206
97 | CGGAGGAG | 0.162
98 | CAACAGCG | -0.0749
99 | CAAATCGC | -0.118
100 | GAGGGACC | -0.232

Row | Sequence | PBM E-score
101 | CTTAAGTC | -0.0654
102 | ATCTAAGA | -0.15
103 | ACGTAACA | -0.204
104 | GGACCGAA | 0.193
105 | AAGGGAAC | -0.121
106 | ACGGCCGT | 0.335
107 | ATGTGTGC | -0.089
108 | CTTGCGGA | 0.137
109 | TAGTGCAA | -0.0608
110 | CATAACGA | -0.0654
111 | CGCAATAA | 0.152
112 | ACATATAA | -0.0276
113 | GTTAGCCA | -0.137
114 | AACTACGT | -0.167
115 | ATTACAGG | 0.0866
116 | ATGACAGA | -0.189
117 | AACAACAG | -0.166
118 | CAAGGACA | -0.086
119 | GGGCACTA | -0.222
120 | ACTATAAA | 0.0095
121 | ATATCTTG | -0.142
122 | AATCGACG | 0.058
123 | AATCTCGT | -0.0671
124 | CCTCACAA | 0.0036
125 | TAAAAATA | -0.0546

Row | Sequence | PBM E-score
126 | ATGAAGTA | -0.039
127 | AGTTCAGC | -0.102
128 | CGATTGGA | -0.0441
129 | GTCGTCAA | -0.11
130 | GAATATAC | 0.13
131 | AGCGCTTG | 0.0633
132 | GTGGTAAC | 0.0698
133 | CGTCAAAA | 0.0576
134 | ATATGGAA | 0.138
135 | CATAGTCG | -0.0764
136 | CTGGTAGC | -0.0482
137 | CGTATTGA | -0.225
138 | AAGAATGC | 0.08
139 | ACCCTCCG | 0.12
140 | ACCGGACG | 0.311
141 | AACAGTGC | -0.0314
142 | CTTAATAA | 0.0619
143 | GAGACAAA | -0.187
144 | CACGAGTG | -0.0888
145 | GAAATAAC | 0.0825
146 | GGCGGTGA | -0.0177
147 | ACCTTTAC | 0.0485
148 | CGCGCCCA | 0.147
149 | TAACTTAA | 0.0276
150 | TATCAACA | -0.00649

Row | Sequence | PBM E-score
151 | ACGGCTAA | 0.125
152 | GCAGTCGA | 0.0159
153 | AGAGTGTC | 0.168
154 | ATATGCAT | -0.105
155 | CAGGTCCC | 0.0276
156 | AGCACATG | 0.0598
157 | GTATAGTA | 0.142
158 | CTCAAAGA | -0.226
159 | ACAGAAAG | -0.154
160 | GACTTATA | 0.0712
161 | GCATTGTA | 0.0272
162 | ATCTCGGA | 0.376
163 | AGTGTCGA | 0.0406
164 | CAATTGTC | -0.00242
165 | ACACTACG | 0.00776
166 | ACGTGGCA | -0.136
167 | CCGCCTCG | 0.0879
168 | AGGTTGTA | -0.114
169 | ACCCACGG | 0.267
170 | CGGGCTTC | 0.3
171 | ACAGGAAC | -0.0901
172 | TTCATAAA | -0.0336
173 | GGCGACGA | -0.137
174 | AAATGCGA | 0.174
175 | CAACAGTG | 0.0756

Row | Sequence | PBM E-score
176 | ACACCCCA | -0.0911
177 | ACTATGAG | -0.0997
178 | CGATTGAG | -0.0506
179 | GAATTATA | 0.0563
180 | CTACTACA | -0.00513
181 | ACGACTAC | -0.238
182 | GCTGTGAC | -0.158
183 | TCTGTTCA | -0.0161
184 | CTATAGGA | -0.177
185 | ATCCTCCA | -0.24
186 | CGACGACA | -0.118
187 | AGGAGTCA | -0.224
188 | ACCACGGC | 0.135
189 | CGTTCGAG | -0.0996
190 | AATGTCGA | -0.0106
191 | GGAAGAAC | 0.268
192 | GCGACCTA | 0.0108
193 | AGGACAAC | -0.0725
194 | CCTAAGCG | -0.246
195 | GCTGGTGA | 0.132
196 | GCAATACC | -0.0416
197 | GGAAAGAC | 0.19
198 | AGTCCAAG | -0.236
199 | TCTATTAA | -0.0129
200 | ATAAAAGG | -0.105

Row | Sequence | PBM E-score
201 | GAAATTTA | -0.136
202 | TAGCAGCA | -0.0766
203 | CCGACGCG | 0.332
204 | ACATGCTC | -0.00156
205 | TAATGGGA | -0.229
206 | ATATAAGC | -0.112
207 | CCTCCAAC | -0.0891
208 | ACGATATA | -0.189
209 | CACAGAAG | -0.109
210 | TCATCCGA | 0.29
211 | CACGAAAC | 0.0293
212 | GGCAAAAC | -0.0978
213 | CCGTGCCA | 0.105
214 | AGACGAGC | -0.303
215 | GCCTCCAA | -0.111
216 | GCCGGAGA | 0.244
217 | CTGCGCTA | -0.216
218 | CCATGACG | -0.0408
219 | ACCGCTTG | 0.067
